Experimental data reported in the RNAGym collection of RNA variant scans (doi:10.1101/gad.245936.114).
This sample is rich in variants without activity.

B1: tRNA (parent)
chain: CUCUCGGUAGCCAAGUUGGUUUAAGGCGCAAGACUUUAAUUUAUCACUACGAAAUCUUGAGAUCGGGCGUUCGACUCGCCCCCGGGAGAUUUUUUCCUCGAGCAA

Variants of: B1
Experiment: nonsense suppression (GFP-seq) (ratio to wild type); higher = more function; SUP4oc tRNA, yeast GFP reporter sort-seq
In short: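 Sorted GFP/RFP bins of yeast were each Illumina-sequenced with a phred ≥30 cutoff; the cells held a genome-integrated ochre-suppressor tRNA variant from a library with ~3% random mutations, a galactose-driven GFP ochre reporter, and RFP. Culture was in raffinose/galactose medium containing 80 mg/L adenine. Nonsense suppression, termed GFPSEQ, is the median GFP/RFP of the bins weighted by each variant's estimated cell share per bin, relative to the unmutated parent tRNA, for variants reaching ≥100 reads and ≥30 cells.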

Nonsense suppression, ≤ 0.026:
CUCUCGGUAGCCAAUUUGGUUUAAGGCGCAAGACUUUAAUUUAUCACUACGAAAUCUUGAGAUCGGGCGUUCCACCCGCCCCCGGGAGAUUUUUUCCUCGAGCAA [G15U G73C U76C]
CUCUCGGUAGCCAAUUUGGUUUAAGGCGCAAGACUUUAAUUUAUCACUACGAAAUCUUGAGAUCGGGCGUUCGACUCGCCCCCGGGAAAUUUUUUCCUCGAGCAA [G15U G88A]
CUCUCGGUAGCCAAUAUGGUUUAAGGCGCUAGACUUUAAUUUAUCACUACGAAAUCUUGAGAUCGGGCGUUCGACUCGCCCCCGGGAGAUUUUUUCCUCGAGCAA [G15U U16A A30U]
CUCUCGGUAGCCAAUAUGUUUUAAGGCGCAAGACUUUAAUUUAUCACUACGAAAUCUUGGGAUCGGGCGUUCGACUCGCCCCCGGGAGAUUUUUUCCUCGAGCAA [G15U U16A G19U A60G]
CUCUCGGUAGCCAAUUAGGUUUAAGGCGCAAGACUUUAAUUUAUCACUACGAAACCUUGAGAUCGGGCGUUCGACUCGCCCCCGGGAGAUUUUUUCCUCGAGCAA [G15U U17A U55C]
CUCUCGGUAGCCAAUUCCGUUUAAGGUGCAAGACUUUAAUUUAUCACUACGAAAUCUUGAGAUCGGGCGUUCGACUCGCCCCCGGGAGAUUUUUUCCUCGAGCAA [G15U U17C G18C C27U]
CUCUCGGUAGCCAAUUUGGAUUAAGGCGGAAGACUUUAAUUUAUCACUACGAAAUCUUGAGAUCGGGCGUUCGACUCGCCCCCGGGAGAUUUUUUCCUCGAGCAA [G15U U20A C29G]
CUCUCGGUAGCCAAUUUGGCUUAAGGCGCAAUACUUUAAUUUAUCACUACGAAAUCUUGAGAUCGGGCGUUCGACUCGCCCUCGGGAGAUUUUUUCCUCGAGCAA [G15U U20C G32U C82U]
CUCUCGGUAGCCAAUUUGGUAUAAGGCGCAAGACUUUAAUUUAUCACUACGAAAGCUUGAGAUCGGGCGUUCGACUCGCCCCCGGGAGAUUUUUUCCUCGAGCAA [G15U U21A U55G]
CUCUCGGUAGCCAAUUUGGUAUAAGGCGCAAGACUUUAAUUUAUCACUACGAAAUCUGGAGAUCGGGCGUUCUACUCGCCCCCGGGAGAUUUUUUCCUCGAGCAA [G15U U21A U58G G73U]
CUCUCGGUAGCCAAUUUGGUCUAAGGCGAAAGACUUUAAUUUAUCACUACGAAAUCUUGAGCUCGGGCGUUCGACUCGCCCCCGGGAGAUUUUUUCCUCGAGCAA [G15U U21C C29A A62C]
CUCUCGGUAGCCAAUUUGGUCUAAGGCGCAAGACUUUAAUUUAUCACUACGAAAUCUUGAGAUCGGGCCUUCGACUCGCCCCCGGGAGAUUUUUUCCUCGAGCAA [G15U U21C G69C]
CUCUCGGUAGCCAAUUUGGUGUAAGGCGCAAGACUUUAAUUUAUCACUACGAAAUCUUGCGAUCGGGCGUUCGACUCGCCCCCGGGAGAUUUUUUCCUCGAGCAA [G15U U21G A60C]
CUCUCGGUAGCCAAUUUGGUUAAUGGCGCAAGACUUUAAUUUAUCACUACGAAAUCUUGAGAUCGGGCGUUCGACUCGCCCCCGGGAGAUUUUUUCCUCGAGCAA [G15U U22A A24U]
CUCUCGGUAGCCAAUUUGGUUUAAGGCGCAAGACGUUAAUUUAUCACUACGAAAUCUUGAGAUCGGGCGUUCGACUCGCCCCCGGGAGAUUUUUUCCUCGAGCAA [G15U U35G]
CUCUCGGUAGCCAAUUUGGUUUAAGGCGCAAGACGUUAAUUUAUCACUACGAAAUCUUGAGAUCGGGCGUUCGACUCGCCCCUGGGAGAUUUUUUCCUCGAGCAA [G15U U35G C83U]
CUCUCGGUAGCCAAUUUGGUUUAAGGCGCAAGACUUUAAUUUAUCACUACGAAAUCCUGAGAUCGGGCGUUCGACUCGCCCCCGGGAGAUUUUUUCCUCGAGCAA [G15U U57C]
CUCUCGGUAGCCAAUUUGGUUUAAGGCGCAAGACUUUAAUUUAUCACUACGAAAUCGUGAGAUCGGGCGUUCGACUCGCCCCCGGGAGAUUUUUUCCUCGAGCAA [G15U U57G]
CUCUCGGUAGCCAAUUUGGUUUAAGGCGCAAGACUUUAAUUUAUCACUACGAAAUCGUGACAUCGGGCGUUCGACUCGCCCCCGGGAGAUUUUUUCCUCGAGCAA [G15U U57G G61C]
CUCUCGGUAGCCAAUUUGGUUUAAGGCGCAAGACUUUAAUUUAUCACUACGAAAUCUAGAGAUCGGGCGUUCGACUCGCCCCCGGGAGAUUUUUUCCUCGAGCAA [G15U U58A]
CUCUCGGUAGCCAAUUUGGUUUAAGGCGCAAGACUUUAAUUUAUCACUACGAAAUCUAGAGAACGGGCGUUCGACUCGCCCCCGGGAGAUUUUUUCCUCGAGCAA [G15U U58A U63A]
CUCUCGGUAGCCAAUUUGGUUUAAGGCGCAAGACUUUAAUUUAUCACUACGAAAUCUGGAGAUCGGGCGUUCCACUCGCCCCCGGGAGAUUUUUUCCUCGAGCAA [G15U U58G G73C]
CUCUCGGUAGCCAAUUUGGUUUAAGGCGCAAGACUUUAAUUUAUCACUACGAAAUCUUGAGACCGGGCGUUCGACUCGCCCCCGGGAGAUUUUUUCCUCGAGCAA [G15U U63C]
CUCUCGGUAGCCAAUUUGGUUUAAGGCGCAAGACUUUAAUUUAUCACUACGAAAUCUUGAGAGCGGGCGUUCGACUCGCCCCCGGGAGAUUUUUUCCUCGAGCAA [G15U U63G]
CUCUCGGUAGCCAAUUUGGUUUAAGGCGCAAGACUUUAAUUUAUCACUACGAAAUCUUGAGAGCGGACGCUCGACUCGCCCCCGGGAGAUUUUUUCCUCGAGCAA [G15U U63G G67A U70C]
CUCUCGGUAGCCAAUUUGGUUUAAGGCGCAAGACUUUAAUUUAUCACUACGAAAUCUUGAGAGCGGGCGUUCGACACGCCCCCGGGAGAUUUUUUCCUCGAGCAA [G15U U63G U76A]
CUCUCGGUAGCCAAUUUGGUUUAAGGCGCAAGACUUUAAUUUAUCACUACGAAAUCUUGAGAUCGGGCGAUCGACUCGCCCCCGUGAGAUUUUUUCCUCGAGCAA [G15U U70A G85U]
